From patent publication US20200038399A1, “FORMULATIONS, METHODS, KIT, AND DOSAGE FORMS FOR TREATING BACTERIAL INFECTION” (Motif BioSciences Inc., priority 2016, published 2020)
The name of at least one read-out is uncertain. Some entries repeat one wording, which the source may state once for all of them.

Legend:
Assay in all cases: checkerboard synergy assay with iclaprim
[1] = system: Staphylococcus aureus ATCC 25923; type: cell-based; conditions: antibiotic in combination with iclaprim; S. aureus 25923
Experimental: (§1) The synergistic potential of iclaprim against Gram-positive and Gram-negative bacteria was determined using the checkerboard assay as described in Eliopoulos GM and Moellering, Jr. RC (1991), Antimicrobial combinations, pp. 432-492, in V. Lorian (ed.), Antibiotics in laboratory medicine, 3rd Ed., The Williams & Wilkins Co., Baltimore, the entire disclosure of which is herein incorporated by reference, allowing multiple test concentrations of iclaprim to be assayed in the presence of various concentrations of the other antibiotic in microtiter plates. The same growth media and conditions were used as described in 3.2 below.
(§2) Two different dilutions were used for iclaprim depending on the MIC determined for the bacterium. […] Iclaprim and the other antibiotic being tested were also dispensed alone in the last row and in the last column, respectively, as controls.
(§3) The Fractional Inhibitory Concentrations (FIC) for each added agent were calculated and used to determine the sum of FIC (ΣFIC) indicative of the synergistic potential of a given combination as described in Veyssier P. (1999), Inhibiteurs de la dihydrofolate reductase, nitrohétérocycles (furanes) et 8-hydroxyquinoleines, pp. 995-1027, in A. Bryskier (ed.), Antibiotiques agents antibatériens et antifongiques, 1st Ed., Ellipses Edition Marketing SA, Paris, the entire disclosure of which is herein incorporated by reference. Synergy was defined whereby the ΣFIC was <0.5, indifference (no synergy nor antagonism) whereby ΣFIC was ≥0.5 but ≤4, and antagonism whereby ΣFIC was >4. Additivity as a special form of indifference was defined whereby the ΣFIC was ≥0.5 but <1, for example as described in Stevens, D L et al. (1998), In vitro antimicrobial effects of various combinations of penicillin and clindamycin against four strains of Streptococcus pyogenes, J. Antimicrob. Chemother. 42: 1266-1268, the entire disclosure of which is herein incorporated by reference.

[2] = system: Streptococcus pneumoniae ATCC 49619; type: cell-based; conditions: antibiotic in combination with iclaprim; S. pneumoniae 49619
Experimental: as §1, §2, §3

S. aureus 101 = type: cell-based, Staphylococcus aureus; conditions: antibiotic in combination with iclaprim
Experimental: as §1, §2, §3

S. pneumoniae 1/1 = type: cell-based, Streptococcus pneumoniae; conditions: antibiotic in combination with iclaprim
Experimental: as §1, §2, §3

SMILES: CO[C@@]1(NC(=O)C(C(=O)O)c2ccc(O)cc2)C(=O)N2C(C(=O)O)=C(CSc3nnnn3C)CO[C@@H]21 (stereo partly shown) [Moxalactam]
- Con (Conclusion) [1]: Ad (Additivity (Ad))
- Con (Conclusion) [2]: Ind (Indifference (Ind))
- Con (Conclusion) (S. aureus 101): Ad (Additivity (Ad))
- Con (Conclusion) (S. pneumoniae 1/1): Ind (Indifference (Ind))
